{"source": "the supplement of paper PMC7826260", "note": "This is one part of the list. Cleavage of a single-stranded DNA pool by Rep nickase domains was read by sequencing (3 µM enzyme, 1 h, 37 °C); shown is the middle of each 90-letter strand. The score is log2 (uncut reads / reads without enzyme); the lower, the more was cut; hits are not called. Counts are relative to all reads; uncut strands gain when others are lost, and binding without cutting may add a little."}
{"tested_on": "T1, Rep nickase domain of tomato golden mosaic virus", "T1 sequence (residues 1-124, tag not shown)": "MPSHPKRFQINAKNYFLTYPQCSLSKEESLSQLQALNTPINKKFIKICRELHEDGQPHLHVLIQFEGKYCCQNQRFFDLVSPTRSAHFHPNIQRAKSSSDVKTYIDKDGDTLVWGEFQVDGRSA", "test": "uncleaved DNA left, log2 of reads against the no-enzyme library (log2 ratio); higher = less cleavage (more negative = more Rep cleavage of the k-mer); sequences stand for … in CTCGTCCG…ACCGGAGA", "protocol": "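A pool of 90-nt single-stranded DNAs with seven random bases just before the constant AC of the nick site (name = the seven bases) was cut by 3 µM recombinant His6-SUMO-tagged Rep nickase domain (300 nM DNA, 50 mM HEPES pH 8.0, 50 mM NaCl, 1 mM MnCl2, 1 h, 37 °C, three replicates). Uncut DNA was amplified and sequenced.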"}
{"sequence": "TACGAGC", "uncleaved DNA left (log2)": 0.143}
{"sequence": "CTCAACA", "uncleaved DNA left (log2)": 0.0255}
{"sequence": "GGGTGTC", "uncleaved DNA left (log2)": -0.113}
{"sequence": "ATTCCCA", "uncleaved DNA left (log2)": -0.041}
{"sequence": "CCCGCGA", "uncleaved DNA left (log2)": -0.215}
{"sequence": "ATGCGTT", "uncleaved DNA left (log2)": -0.0373}
{"sequence": "CTTACGA", "uncleaved DNA left (log2)": -0.0455}
{"sequence": "CGGTTTT", "uncleaved DNA left (log2)": 0.0448}
{"sequence": "GCTTGCA", "uncleaved DNA left (log2)": -0.0969}
{"sequence": "AGTAACG", "uncleaved DNA left (log2)": 0.0422}
{"sequence": "CCTCTGT", "uncleaved DNA left (log2)": 0.0172}
{"sequence": "AGTGTAG", "uncleaved DNA left (log2)": 0.0246}
{"sequence": "CGTCTAG", "uncleaved DNA left (log2)": -0.0786}
{"sequence": "CCGTGCT", "uncleaved DNA left (log2)": -0.872}
{"sequence": "GGCAGTA", "uncleaved DNA left (log2)": 0.0314}
{"sequence": "TTGCTAG", "uncleaved DNA left (log2)": 0.029}
{"sequence": "CCAACAT", "uncleaved DNA left (log2)": 0.117}
{"sequence": "ATATGTA", "uncleaved DNA left (log2)": 0.0746}
{"sequence": "TTGGGAC", "uncleaved DNA left (log2)": 0.124}
{"sequence": "ACGCAAT", "uncleaved DNA left (log2)": 0.132}
{"sequence": "TCTGTAT", "uncleaved DNA left (log2)": 0.00575}
{"sequence": "ATTATAC", "uncleaved DNA left (log2)": 0.0974}
{"sequence": "AACAAGC", "uncleaved DNA left (log2)": 0.0819}
{"sequence": "CTGTTTG", "uncleaved DNA left (log2)": -0.129}
{"sequence": "CCGCAAA", "uncleaved DNA left (log2)": 0.098}
{"sequence": "GATCCTG", "uncleaved DNA left (log2)": 0.0192}
{"sequence": "GCCGCCC", "uncleaved DNA left (log2)": -0.0423}
{"sequence": "TGCTGTC", "uncleaved DNA left (log2)": -0.133}
{"sequence": "GTTCAGT", "uncleaved DNA left (log2)": 0.0493}
{"sequence": "ACAATAA", "uncleaved DNA left (log2)": 0.061}
{"sequence": "TCAGATC", "uncleaved DNA left (log2)": 0.0551}
{"sequence": "CTGGTAA", "uncleaved DNA left (log2)": -0.0685}
{"sequence": "TTGTTAG", "uncleaved DNA left (log2)": -0.118}
{"sequence": "CTCCGAT", "uncleaved DNA left (log2)": 0.000539}
{"sequence": "CGCTCAG", "uncleaved DNA left (log2)": 0.0324}
{"sequence": "GGCGATC", "uncleaved DNA left (log2)": 0.00549}
{"sequence": "CAAGCAT", "uncleaved DNA left (log2)": -0.041}
{"sequence": "CACAGTT", "uncleaved DNA left (log2)": -0.00358}
{"sequence": "CTTAGGG", "uncleaved DNA left (log2)": 0.114}
{"sequence": "AAACCGA", "uncleaved DNA left (log2)": 0.0781}
